Measurements: PubChem BioAssay AID488969 (Vanderbilt High Throughput Screening Facility, 2010)
The full ranking holds about 110,000 compounds; the median of “z-score” is about -0.1, and the highest 2% start at about 2. The list shows a part of the results. Activity calls are given as the source filed them.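 How the source made its calls: active means z-score in the third read window above 3 or below -3; inactive means the rest.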

Target: Metabotropic glutamate receptor 8 (Rattus norvegicus) (UniProt P70579)
Experiment: rat mGluR8 modulators via GIRK flux, primary screen, cell-based, thallium flux, HTS (AID 488969)
Conditions: HEK293 rat mGluR8, GIRK (G protein-gated inwardly rectifying potassium channel) thallium flux, FluoZin2; at 10 µM; stronger effect = higher value; submaximal glutamate (EC20) added with thallium

UniProt P70579, sequence (P70579 whole entry, looked up): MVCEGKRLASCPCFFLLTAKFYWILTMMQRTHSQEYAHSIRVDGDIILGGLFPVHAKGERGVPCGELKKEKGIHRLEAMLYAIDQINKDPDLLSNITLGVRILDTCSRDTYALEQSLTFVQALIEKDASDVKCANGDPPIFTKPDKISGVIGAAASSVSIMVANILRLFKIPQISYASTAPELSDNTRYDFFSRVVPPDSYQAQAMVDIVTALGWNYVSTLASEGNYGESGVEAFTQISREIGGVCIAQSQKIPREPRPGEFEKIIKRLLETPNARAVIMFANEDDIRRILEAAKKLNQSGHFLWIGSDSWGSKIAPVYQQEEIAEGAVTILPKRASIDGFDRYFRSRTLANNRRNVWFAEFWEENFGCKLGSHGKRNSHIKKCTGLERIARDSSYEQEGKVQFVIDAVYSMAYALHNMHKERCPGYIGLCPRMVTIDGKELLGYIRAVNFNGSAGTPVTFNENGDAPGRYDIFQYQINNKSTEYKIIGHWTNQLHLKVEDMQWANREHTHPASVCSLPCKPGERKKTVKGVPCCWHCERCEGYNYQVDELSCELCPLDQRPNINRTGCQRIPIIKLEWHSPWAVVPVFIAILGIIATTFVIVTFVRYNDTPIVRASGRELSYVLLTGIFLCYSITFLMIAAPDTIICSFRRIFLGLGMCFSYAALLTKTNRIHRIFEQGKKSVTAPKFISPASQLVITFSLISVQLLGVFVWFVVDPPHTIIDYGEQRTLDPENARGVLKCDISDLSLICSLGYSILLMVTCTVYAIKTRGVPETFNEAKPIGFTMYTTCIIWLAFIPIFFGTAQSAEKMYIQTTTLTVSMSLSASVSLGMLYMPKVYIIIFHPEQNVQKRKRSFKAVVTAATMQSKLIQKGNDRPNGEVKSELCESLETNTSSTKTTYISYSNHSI

Row | Structure (SMILES) | z-score
1 | CCOC(=O)C1CCN(S(=O)(=O)c2ccc(C)cc2)CC1 | 0.0605
2 | C/C(CC(=O)Nc1ccc(Cl)cc1)=N\NC(=O)C(=O)NCCO | 0.444
3 | Cc1ccccc1Cn1c(=O)n(Cc2ccco2)c(=O)c2ccccc21 | -0.362
4 | Cc1c(Br)cc(C(=O)NC2CCCCC2)c(C)c1C | -0.949
5 | CC1Cc2ccccc2N1C(=O)C1CCN(S(=O)(=O)c2cccs2)CC1 (stereo unspecified) | 0.0507
6 | COc1ccc(NC(=O)c2ccc(C(=O)c3ccccc3)o2)cc1 | 0.267
7 | CCOC(=O)c1cc2c3ccccc3n(CC)c2nc1N | 1.33
8 | COc1ccc(C(=O)n2nc(-c3ccco3)nc2SC)cc1OC | -0.997
9 | COC(=O)COc1ccc2occ(C(C)=O)c2c1 | 0.456
10 | COc1ccccc1N1C(=O)CC(N2CCc3ccccc32)C1=O (stereo unspecified) | -0.042
11 | Cc1ccc2nc(NC(=O)CSCc3ccccc3)sc2c1 | -0.525
12 | O=C(c1ccc([N+](=O)[O-])cc1)N1CCN(Cc2ccccc2)CC1 | -0.09
13 | CCOCCn1c(SCc2ccc(F)cc2)nc2c1c(=O)[nH]c(=O)n2C | 0.136
14 | Cc1cc2c(=O)n(Cc3ccco3)c(SCC(=O)c3ccc(Cl)s3)nc2s1 | 0.0822
15 | CCOC(=O)C(NC(=O)c1cccc(Cl)c1)(OCc1ccc(F)cc1)C(F)(F)F (stereo unspecified) | -0.0992
16 | O=C(NCc1ccccc1)c1ccc(C2SCC(=O)N2Cc2ccccc2)cc1 (stereo unspecified) | -0.875

Row | Structure (SMILES) | z-score
17 | N#C/C(=C\c1cccc(Oc2ccc(C(F)(F)F)cc2[N+](=O)[O-])c1)c1nc2ccccc2[nH]1 | 0.00811
18 | O=C(COc1ccc(Cl)cc1Cl)Nc1noc2ccccc12 | active: 12.9
19 | Cn1c(SCC(=O)NC(=O)NCc2ccco2)nnc1-c1ccccc1 | 0.74
20 | COc1cccc(N(CC(=O)Nc2ccccc2C)S(C)(=O)=O)c1 | -0.0477
21 | Cc1c(C(=O)N2CCN(c3ccccn3)CC2)sc2ncnc(N3CCN(c4ccccc4)CC3)c12 | -1.02
22 | CC(=O)Nc1ccc(/C(C)=N/NC(=O)c2ccc(F)cc2)cc1 | -0.116
23 | COc1ccccc1C(=O)NCCn1ccc2ccccc21 | 0.0274
24 | O=[N+]([O-])c1ccc(N/N=C/c2cn(Cc3ccc(F)cc3)c3ccccc23)nc1 | 0.0783
25 | CN1CCN(c2ccc(S(=O)(=O)N3CCCCC3)cn2)CC1 | -0.0159
26 | Cc1ccc(Cn2cccc(NC(=O)NC3CCCCC3)c2=O)cc1 | -0.24
27 | CCn1c(SCC(N)=O)nc2sc3c(c2c1=O)CCCC3 | active: 8.59
28 | Cc1c(Br)c(C(F)(F)F)nn1CC(=O)NCC1CCCO1 (stereo unspecified) | 0.71
29 | CCOc1nc(NCCO)nc(NCCC2=CCCCC2)n1 | -0.166
30 | CCOC(=O)N1CCN(C(=O)Cn2ncc3c2-c2ccccc2OC3)CC1 | -0.102
31 | CCn1c(=NC(=O)c2ccco2)sc2cccc(F)c21 | -2.12
